Several values for one entry are separate records, joined by “and”; a condition that tells them apart may be missing. Identical values can stand only once. In all, about 110,000 compounds went through this assay and about 230 (0.21%) showed an effect of 50% or more. The list shows a part of the results.
biological target: DPAP1 (Plasmodium falciparum, UniProt Q8IIJ9); assay: primary screen, percent inhibition; read by cleavage of a fluorogenic dipeptide substrate; higher = more effect of the substance; set-up: species or system P. falciparum D10 trophozoite lysates; single well
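Also: 30 min substrate incubation versus DMSO and 10 µM JCP410 controls.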

Chain of DPAP1 (Q8IIJ9 whole entry, looked up): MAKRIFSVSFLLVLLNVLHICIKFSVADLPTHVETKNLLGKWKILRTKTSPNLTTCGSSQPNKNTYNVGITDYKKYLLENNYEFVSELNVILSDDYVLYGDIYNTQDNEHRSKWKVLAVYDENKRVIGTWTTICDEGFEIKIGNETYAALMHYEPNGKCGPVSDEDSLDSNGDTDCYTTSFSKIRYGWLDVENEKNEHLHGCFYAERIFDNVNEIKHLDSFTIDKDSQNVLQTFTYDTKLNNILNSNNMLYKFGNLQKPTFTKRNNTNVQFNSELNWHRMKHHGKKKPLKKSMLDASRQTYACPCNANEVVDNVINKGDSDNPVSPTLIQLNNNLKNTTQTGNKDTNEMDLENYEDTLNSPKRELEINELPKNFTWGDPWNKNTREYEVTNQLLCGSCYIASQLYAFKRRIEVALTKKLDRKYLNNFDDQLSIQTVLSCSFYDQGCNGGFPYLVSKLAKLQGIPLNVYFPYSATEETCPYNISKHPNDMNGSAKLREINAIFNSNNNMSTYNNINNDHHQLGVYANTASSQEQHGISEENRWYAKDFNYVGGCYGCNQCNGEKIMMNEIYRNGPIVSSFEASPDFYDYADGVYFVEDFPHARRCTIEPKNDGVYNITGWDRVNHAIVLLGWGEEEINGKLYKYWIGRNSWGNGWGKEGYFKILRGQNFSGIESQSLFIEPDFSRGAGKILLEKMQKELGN

Row | Compound | % Inhibition @ 10 uM
1 | Cc1nc2c3ccccc3n3c(CCCC(=O)NCC4CCCO4)nnc3n2n1 (stereo not drawn) | 3.59%
2 | Cn1c(=O)c2c(-c3ccc(C(C)(C)C)cc3)n(C(C)(C)C)cc2n(C)c1=O | -4.95%
3 | COC(=O)c1sccc1NC(=O)Cn1ncc2c1-c1cc(C)ccc1OC2 | 0.851%
4 | CCOc1ccc2nc(N3CCC(C(=O)NCCN(CC)CC)CC3)sc2c1 | -3.35%
5 | O=S(=O)(Nc1ncccc1O)c1ccc(Cl)cc1 | 3.05%
6 | O=S(=O)(c1cccc(Cl)c1)c1nnn2c1nc(NCCc1ccccc1)c1sccc12 | -2.55%
7 | COc1cc(NC(=O)c2cccs2)c(OC)cc1Cl | -12.2%
8 | Cc1cc(C)c(-c2c(NC3CCCc4ccccc43)c(=O)c2=O)cc1C (stereo not drawn) | 7.39%
9 | COc1ccc(C)cc1NC(=O)c1ccc(OC(F)F)c(OC)c1 | 2.4%
10 | Brc1csc(CN2CCN(Cc3ccccc3)CC2)c1 | -3.56%
11 | CC(NC(=O)c1csc2c1CCCC2)c1ccccc1 (stereo not drawn) | -6.95%
12 | CCN(CC)C(=O)C(=O)c1cn(CC(=O)NCCc2ccccc2)c2ccccc12 | 2.77%
13 | CCOC(=O)c1c(C)nc(NC(C)=O)nc1N | 1.29%
14 | Cc1cc(C)nc(NS(=O)(=O)c2ccc(NC(=O)c3ccc(S(=O)(=O)N4CCCCC4)cc3)cc2)n1 | -0.424%
15 | CC(=O)N(C)c1ccc(NC(=O)COc2ccc(Cl)cc2Br)cc1 | -13.4%
16 | CN1CCN(C(=O)c2cc(Cl)ccc2NC(=O)c2ccco2)CC1 | -8.92%
17 | CN1C(=O)NC(c2ccccc2)C2=C1CN(c1ccccc1)C2=O (stereo not drawn) | 0.215%
18 | Oc1nc2ccccc2n1CCCN1CCCCC1 | 6.64%
19 | CCn1c(C(=O)NCc2ccc(C)cc2)cc2oc3ccccc3c21 | -0.447%
20 | C=CCSc1nc(O)cc(=O)n1-c1ccccc1 | 0.273%
21 | Cc1ccccc1OCC(=O)Nc1ccc(Cl)c(C(N)=O)c1 | -6.44%
22 | CN1CCN(C(=O)Nc2ccccc2Cc2cccs2)CC1 | -6.37% and 0.214%
23 | Brc1ccc(OCc2ccccc2)c(CNCC2CCCO2)c1 (stereo not drawn) | -11.5%
24 | Cc1cc(C)cc(COC(=O)N[C@@H](CC(C)C)C(=O)NCC#N)c1 | 0.174%
25 | N#Cc1cc(NC(=O)c2ccccc2)c(O)n2c1nc1ccccc12 | 2.36%
26 | CCSc1nn2c(=O)c(C)nnc2s1 | -0.671%

Row | Compound | % Inhibition @ 10 uM
27 | COc1ccc(C2=N/C(=C/C(C)=C/c3ccccc3)C(=O)O2)cc1Br | -0.251%
28 | Cc1ccc(C(=O)N/C(=C/c2ccccc2F)C(=O)NC(C)C)cc1 | 1.35%
29 | O=C(NCc1ccccc1Cl)C1CCC(=O)N1Cc1ccc(F)cc1 (stereo not drawn) | -5.43%
30 | CCCCCCn1c(SC)nc2c1c(=O)[nH]c(=O)n2C | -2.24%
31 | CC1CCCC(NC(=O)C2CCN(c3nnc(-n4cccc4)s3)CC2)C1C (stereo not drawn) | -0.735%
32 | OCCN(Cc1ccccc1)Cc1ccc(F)c(F)c1 | 1.74%
33 | O=C(CCn1ccc2cc(S(=O)(=O)N3CCCC3)ccc21)NCc1ccccc1 | 0.0496%
34 | CCOC(=O)N1CCC(NCc2cccc(F)c2)CC1 | -2.02%
35 | CCCn1c2ccccc2c2cnn(CC(=O)Nc3cccnc3)c(=O)c21 | -1.71%
36 | CCOC(=O)c1c2c(n(-c3ccc(C)cc3)c1C)-c1ccccc1C(=O)C2=O | 4.32%
37 | O=C(c1ccc2c(c1)OCO2)N1CCN(c2ccccc2)CC1 | -1.32%
38 | CCCCCCc1nc2c(O)nc3ccccc3c2o1 | 8.44%
39 | CCc1nc(SC)ncc1C(=O)NCc1ccccc1C | 2.9%
40 | CCCN(CCC)CCNC(=O)CNC(=O)Cn1ccc2ccccc2c1=O | -3.27%
41 | O=C(NCC(=O)N1CCOCC1)c1ccccc1 | 15.6%
42 | Cc1sc2ncnc(NCCO)c2c1C | -8.21%
43 | Fc1ccc(F)c(CN2CCN(c3ccccc3F)CC2)c1 | -2.34%
44 | Cc1cc(C)c(/C=c2\sc3nc4cc(C)c(C)cc4n3c2=O)cc1C | 4.52%
45 | c1ccc2c3c(c(CN4CCCC4)cc2c1)COC3 | 0.674%
46 | Cn1cc(S(=O)(=O)N2CCOCC2)cc1C(=O)N1CCn2c1nc1ccccc12 | -6.32%
47 | Cc1nnc2sc(NC(=O)c3ccccc3F)nn12 | 4.86%
48 | O=c1/c(=C/C2=Cc3ccccc3OC2)sc2nc(-c3cccc(Cl)c3)nn12 | 0.561%
49 | CCC1CCCCN1Cc1ccc(CN2CNc3c(c(=O)n(C)c(=O)n3C)C2)o1 (stereo not drawn) | 2.34%
50 | Cc1ccc(NC(=O)c2ccc3c(c2)CCN3S(C)(=O)=O)cc1 | 2.48%
51 | COc1ccc(CNC(=O)CN(c2ccccc2)S(=O)(=O)c2ccccc2)cc1 | 9.01%
